In all, about 39,000 compounds went through this assay and about 220 (0.56%) showed activity. Some of the results follow.
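Note: static incubation at 37 °C against the wild-type strain, values averaged over two biological replicates.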

The experiment deals with Escherichia coli K-12 BW25113. In words: relative growth (OD600 normalised to plate interquartile mean) (fraction); higher = less growth inhibition, active = 0.2 or less. As to conditions: 50 µM; LB; incubation time: overnight (16-24 h).
With `C[C@@H]1CN([C@@H](C)CO)C(=O)c2cc(NS(=O)(=O)c3cccs3)ccc2O[C@@H](C)CCCCO[C@H]1CN(C)Cc1ccccc1`, the relative growth was inactive: 1.

In the case of `C[C@H](CO)N1C[C@H](C)[C@H](CN(C)S(=O)(=O)c2cn(C)cn2)Oc2c(NC(=O)Nc3ccc4c(c3)OCO4)cccc2C1=O`, the relative growth was inactive: 1.01.

As to `Cc1ccc(S(=O)(=O)Nc2ccc3c(c2)C(=O)N([C@@H](C)CO)C[C@@H](C)[C@@H](CN(C)S(=O)(=O)c2ccc(F)cc2)OCCCC[C@H](C)O3)cc1`, the relative growth was inactive: 1.05.

`C[C@@H]1CN([C@@H](C)CO)C(=O)Cc2cc(NC(=O)Cn3cnnn3)ccc2O[C@H]1CN(C)S(C)(=O)=O`: the relative growth was inactive: 0.996.

As for `C[C@@H]1CN([C@H](C)CO)C(=O)c2cccc(NC(=O)C3CC3)c2O[C@@H]1CN(C)Cc1ccc(C(=O)O)cc1`, the relative growth is inactive: 0.986.

For the compound `COc1ccc(S(=O)(=O)Nc2ccc3c(c2)C(=O)N([C@@H](C)CO)C[C@@H](C)[C@H](CN(C)C(=O)NC2CCCCC2)OCCCC[C@@H](C)O3)cc1`, the relative growth was inactive: 0.998.

For the compound `O=C(C[C@H]1CC[C@@H]2[C@H](COC[C@@H](O)CN2S(=O)(=O)c2ccccc2)O1)NCCN1CCCCC1`, the relative growth is inactive: 1.02.

`C[C@@H]1CCCCO[C@@H](CN(C)C(=O)C2CCCCC2)[C@H](C)CN([C@@H](C)CO)C(=O)c2cc(NC(=O)c3ccncc3)ccc2O1`: the relative growth is inactive: 1.

As to `COC1(NC(=O)Cc2cccs2)C(=O)N2C(C(=O)[O-])=C(COC(N)=O)CSC21.[Na+]` (stereo not drawn), the relative growth is active: 0.0688.

With `O=C1NC(=O)[C@@]2(CC[C@H](C(=O)O)C2)N1`, the relative growth was inactive: 1.01.

On to `O=C(C[C@@H]1CC[C@@H](NC(=O)c2cnccn2)[C@H](CO)O1)NCc1ccccc1F`, for which the relative growth is inactive: 0.996.

Consider `C[C@H](CO)N1C[C@H](C)[C@H](CN(C)C(=O)CN(C)C)Oc2cc(C#CCC3CCCC3)ccc2S1(=O)=O`, for which the relative growth was inactive: 1.

In the case of `O=c1c(-c2ccc(O)cc2)coc2cc(O)cc(O)c12`, the relative growth is inactive: 1.04.

Regarding `C[C@@H]1CN([C@@H](C)CO)C(=O)c2cccc(NS(=O)(=O)c3cn(C)cn3)c2O[C@@H]1CN(C)Cc1ccccc1`, the relative growth was inactive: 1.02.

As for `N[C@@H](c1ccccc1)c1cc2ccccc2cn1`, the relative growth is inactive: 0.942.

As for `C[C@H]1CN([C@@H](C)CO)C(=O)c2cc(C#Cc3ccccc3F)cnc2O[C@@H]1CN(C)C(=O)C1CCOCC1`, the relative growth was inactive: 1.

As to `C[C@@H]1CCCCO[C@@H](CN(C)CC2CC2)[C@@H](C)CN([C@H](C)CO)C(=O)c2cc(NC(=O)C3CCCCC3)ccc2O1`, the relative growth is inactive: 0.978.

As to `C[C@@H]1CN([C@@H](C)CO)C(=O)c2cc(C#Cc3ccc(F)cc3)cnc2O[C@H]1CN(C)Cc1ccccn1`, the relative growth is inactive: 0.99.

As for `COc1ccc(NC(=O)N(C)C[C@@H]2OCCCC[C@@H](C)Oc3ccc(NC(=O)C4CCCCC4)cc3C(=O)N([C@@H](C)CO)C[C@H]2C)cc1`, the relative growth is inactive: 0.992.

`O=C1C=C2CC3(O)COc4cc(O)ccc4C3=C2C=C1O` (stereo not drawn): the relative growth is inactive: 1.12.

With `Cc1ccc(S(=O)(=O)Nc2ccc3c(c2)CC(=O)N([C@H](C)CO)C[C@@H](C)[C@H](CN(C)S(=O)(=O)c2c(C)noc2C)O3)cc1`, the relative growth is inactive: 0.996.

With `COc1ccc(NC(=O)Nc2ccc3c(c2)C(=O)N([C@H](C)CO)C[C@@H](C)[C@H](CN(C)S(=O)(=O)c2c(C)noc2C)OCCCC[C@@H](C)O3)cc1`, the relative growth is inactive: 1.01.

In the case of `Cc1cc(C(=O)NN)n(C(C)(C)C)n1`, the relative growth was inactive: 1.04.

For the compound `N[C@H](Cc1ccccc1)C(=O)O`, the relative growth is inactive: 0.922.

`Cc1noc(C)c1S(=O)(=O)Nc1ccc2c(c1)CC(=O)N([C@@H](C)CO)C[C@@H](C)[C@@H](CN(C)S(=O)(=O)c1ccc(F)cc1)O2`: the relative growth was inactive: 1.05.

As for `Cc1noc(C)c1NC(=O)N(C)C[C@H]1Oc2ccc(NS(=O)(=O)c3cccs3)cc2CC(=O)N([C@@H](C)CO)C[C@H]1C`, the relative growth was inactive: 1.

Take `Cc1cn(C2CC(N=[N+]=[N-])C(CO)O2)c(=O)[nH]c1=O` (stereo not drawn): the relative growth was active: 0.0449.

For `CCc1nc2ccc(C(=O)Nc3ccc(OC)c(OC)c3)cn2c1N(CC)Cc1ccc(OC)c(OC)c1`, the relative growth was inactive: 1.01.

As for `C[C@H]1CN([C@@H](C)CO)C(=O)c2cccc(NC(=O)Nc3ccc(C(F)(F)F)cc3)c2O[C@H]1CN(C)Cc1ccc(Oc2ccccc2)cc1`, the relative growth is inactive: 1.02.

Consider `C[C@@H](O)C#Cc1ccc2c(c1)O[C@H](CN(C)C)[C@@H](C)CN([C@@H](C)CO)S2(=O)=O`, for which the relative growth is inactive: 1.01.

For the compound `Cc1ccc(S(=O)(=O)N[C@@H](Cc2ccccc2)C(=O)NCCCn2cc(-c3ccccc3N)nn2)cc1`, the relative growth was inactive: 0.988.

`COCC(=O)N1CC[C@]2(CC1)CN([C@@H](CO)c1c2c2ccc(cc2n1C)OC)C(=O)Cc1ccccc1`: the relative growth was inactive: 1.01.

Regarding `Cc1noc(C)c1S(=O)(=O)N(C)C[C@@H]1Oc2ccc(NC(=O)Nc3ccccc3)cc2CC(=O)N([C@H](C)CO)C[C@H]1C`, the relative growth is inactive: 1.01.

Take `C[C@@H]1CN([C@@H](C)CO)C(=O)c2cccc(NC(=O)Nc3ccc(C(F)(F)F)cc3)c2O[C@@H]1CN(C)Cc1ccc2c(c1)OCO2`: the relative growth is inactive: 0.993.

With `Cn1cnc(S(=O)(=O)N[C@@H]2C=C[C@H](CC(=O)NCC3CC3)O[C@@H]2CO)c1`, the relative growth is inactive: 1.

In the case of `NCc1ccno1`, the relative growth is inactive: 0.992.

Consider `CO[C@H](CN(C)C(=O)Nc1ccc(C(F)(F)F)cc1)[C@H](C)CN(Cc1ccccc1Cl)[C@@H](C)CO`, for which the relative growth is inactive: 1.01.

`C[C@@H]1CCCCO[C@H](CN(C)S(=O)(=O)c2ccc(F)cc2)[C@@H](C)CN([C@@H](C)CO)C(=O)c2cc(NC(=O)Nc3cccc4ccccc34)ccc2O1`: the relative growth was inactive: 1.03.

On to `Cc1noc(C)c1NC(=O)Nc1ccc2c(c1)C(=O)N([C@@H](C)CO)C[C@@H](C)[C@H](CN(C)S(C)(=O)=O)O2`, for which the relative growth is inactive: 0.962.

With `NNC(=O)Cc1nc2ccccc2[nH]1`, the relative growth is inactive: 1.03.

With `COc1ccc(S(=O)(=O)N(C)C[C@@H]2Oc3ccc(NS(C)(=O)=O)cc3CC(=O)N([C@@H](C)CO)C[C@H]2C)cc1`, the relative growth is inactive: 1.03.

Regarding `CNC(=O)C[C@H]1CC[C@@H]2[C@H](COC[C@@H](O)CN2C(=O)Nc2cccc(OC)c2)O1`, the relative growth was inactive: 0.996.

Regarding `CO[C@@H]1CN(C)C(=O)c2cc(NS(=O)(=O)c3cn(C)cn3)ccc2OC[C@H](C)N(Cc2cccc(F)c2)C[C@H]1C`, the relative growth was inactive: 0.984.

Regarding `CO[C@@H]1CN(C)C(=O)c2ccc(NC(=O)C3CCOCC3)cc2OC[C@H](C)N(Cc2cccnc2)C[C@H]1C`, the relative growth was inactive: 1.03.

On to `C[C@@H]1CCCCO[C@H](CN(C)S(C)(=O)=O)[C@@H](C)CN([C@H](C)CO)C(=O)c2cc(N(C)C)ccc2O1`, for which the relative growth was inactive: 0.947.

Consider `C[C@@H]1CCCCO[C@H](CN(C)C(=O)CCCN(C)C)[C@H](C)CN([C@@H](C)CO)C(=O)c2cc(N(C)C)ccc2O1`, for which the relative growth was inactive: 0.998.

`COc1ccc(NC(=O)Nc2ccc3c(c2)C(=O)N([C@H](C)CO)C[C@H](C)[C@@H](CN(C)C(=O)NC(C)C)OCCCC[C@H](C)O3)cc1`: the relative growth was inactive: 1.01.

On to `COc1ccc([C@H]2[C@@H](C(N)=O)C2(C#N)C#N)cc1`, for which the relative growth is inactive: 0.999.

For `N#C[C@H]1N[C@@H](CO)[C@H]1c1ccccc1`, the relative growth is inactive: 0.991.

As to `C[C@H](CO)N1C[C@H](C)[C@H](CN(C)C(=O)NC2CCCCC2)OCCCC[C@H](C)Oc2ccc(NS(=O)(=O)c3ccc(Cl)cc3)cc2C1=O`, the relative growth was inactive: 1.02.

`C[C@H]1CN([C@@H](C)CO)C(=O)c2cc(NC(=O)Nc3cccc4ccccc34)ccc2O[C@H]1CN(C)CC1CCCCC1`: the relative growth was inactive: 1.01.

Regarding `CNC[C@@H]1Oc2c(NS(=O)(=O)c3cn(C)cn3)cccc2C(=O)N([C@H](C)CO)C[C@H]1C`, the relative growth was inactive: 1.02.

With `C[C@@H]1CN([C@H](C)CO)C(=O)c2cc(NC(=O)Cn3cnnn3)ccc2O[C@H]1CN(C)C(=O)Nc1cccc2ccccc12`, the relative growth is inactive: 1.

Consider `CNC(=O)C[C@H]1CC[C@H]2[C@@H](COC[C@H](O)CN2C(=O)c2ccccn2)O1`, for which the relative growth was inactive: 1.01.

In the case of `C[C@@H]1CN([C@@H](C)CO)C(=O)c2cc(NC(=O)Nc3ccc4c(c3)OCO4)ccc2O[C@@H](C)CCCCO[C@H]1CN(C)CC1CCCCC1`, the relative growth is inactive: 0.994.

Consider `COC(=O)c1c2oc(c1C(=O)OC)C(=O)N[C@@H](Cc1ccccc1)Cn1cc(nn1)CNC(=O)[C@@H](Cc1ccccc1)NC(=O)N[C@@H](COC(=O)NCCCCCC(=O)NO)CC2`, for which the relative growth was inactive: 1.05.

With `Cc1ccc(S(=O)(=O)Nc2cccc3c2O[C@H](CN(C)Cc2ccc(C(F)(F)F)cc2)[C@@H](C)CN([C@@H](C)CO)C3=O)cc1`, the relative growth is inactive: 0.988.

`CC(C)(O)C#Cc1ccc([C@@H]2[C@H]3CN(S(C)(=O)=O)CCCCN3[C@H]2CO)cc1`: the relative growth was inactive: 1.04.

With `CCCC#Cc1ccc2c(c1)O[C@@H](CN(C)C(=O)c1cnccn1)[C@H](C)CN([C@H](C)CO)S2(=O)=O`, the relative growth was inactive: 0.983.

Turning to `COc1ccc(C#Cc2ccc3c(c2)O[C@H](CN(C)S(=O)(=O)c2ccccc2F)[C@H](C)CN([C@H](C)CO)S3(=O)=O)cc1`, the relative growth is inactive: 1.03.

Regarding `Cn1cnc(S(=O)(=O)N[C@@H]2CC[C@H](CC(=O)Nc3ccccc3)O[C@H]2CO)c1`, the relative growth is inactive: 0.993.

For the compound `O=S(=O)(O)O/N=C(\Cc1ccc(O)cc1)S[C@H]1O[C@H](CO)[C@@H](O)[C@H](O)[C@H]1O`, the relative growth is inactive: 0.99.

As to `CO[C@H](CN(C)C(=O)c1ccccc1F)[C@@H](C)CN([C@@H](C)CO)S(=O)(=O)c1ccc(Cl)cc1`, the relative growth was inactive: 0.989.

The values above are taken from the supplement of paper PMC9446081.
